In paper PMC6919601, “Identification of Plasmodium dipeptidyl aminopeptidase allosteric inhibitors by high throughput screening” (PLoS ONE, 2019):
About 230 (0.21%) of roughly 110,000 compounds showed an effect of 50% or more. The list shows a part of the results.

biological target: DPAP1 (Plasmodium falciparum, UniProt Q8IIJ9); assay: primary screen, percent inhibition; read by cleavage of a fluorogenic dipeptide substrate; higher = more effect of the substance; parameters: species or system P. falciparum D10 trophozoite lysates; single well
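Note: 30 min substrate incubation versus DMSO and 10 µM JCP410 controls.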

Chain of DPAP1 (Q8IIJ9 whole entry, looked up): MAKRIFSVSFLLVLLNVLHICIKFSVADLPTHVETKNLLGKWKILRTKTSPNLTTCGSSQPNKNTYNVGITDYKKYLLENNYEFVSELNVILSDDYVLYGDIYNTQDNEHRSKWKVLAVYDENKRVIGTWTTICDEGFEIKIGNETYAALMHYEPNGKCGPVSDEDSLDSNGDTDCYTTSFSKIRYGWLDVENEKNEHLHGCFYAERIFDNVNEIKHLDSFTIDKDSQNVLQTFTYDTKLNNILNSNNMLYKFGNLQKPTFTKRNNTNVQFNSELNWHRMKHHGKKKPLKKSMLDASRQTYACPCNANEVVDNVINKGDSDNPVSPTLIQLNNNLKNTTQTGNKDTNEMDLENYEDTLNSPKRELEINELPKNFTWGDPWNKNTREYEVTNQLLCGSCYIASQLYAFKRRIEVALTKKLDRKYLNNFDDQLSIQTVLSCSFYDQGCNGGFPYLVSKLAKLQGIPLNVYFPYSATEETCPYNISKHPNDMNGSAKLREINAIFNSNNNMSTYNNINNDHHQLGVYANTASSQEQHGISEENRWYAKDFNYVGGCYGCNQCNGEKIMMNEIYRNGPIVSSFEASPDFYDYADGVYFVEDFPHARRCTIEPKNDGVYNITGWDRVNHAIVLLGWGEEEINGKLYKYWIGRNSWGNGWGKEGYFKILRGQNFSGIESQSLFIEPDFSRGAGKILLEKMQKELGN

| SMILES | % Inhibition @ 10 uM [%] |
| --- | --- |
| CN(C)CCCN(CCCN(C)C)Cc1cccc(C(F)(F)F)c1 | -2.34 |
| O=C(NCCOC(=O)c1cccc2ccccc12)c1ccccc1 | -4.91 |
| NS(=O)(=O)c1ccc(NC(=O)CSC2=N/C(=C/c3ccco3)C(=O)N2c2ccccc2)cc1 | -1.84 |
| COc1ccccc1CN1COc2c(Cl)cc3c(C)c(C)c(=O)oc3c2C1 | 0.895 |
| CCn1c(O)cc(=O)nc1SCc1ccc(Cl)cc1 | 0.215 |
| O=S(=O)(Nc1nc2ccccc2nc1Nc1ccc(O)cc1)c1ccccc1 | -3.62 |
| CC(=O)c1ccc(-c2ccc(/C=C3/SC(=O)N(CC(=O)N4CCOCC4)C3=O)o2)cc1 | 1.02 |
| O=S(=O)(NCc1ccccc1Cl)c1ccc2c(c1)OCCO2 | -1.02 |
| O=C(Cc1ccccc1)Nc1ccccc1NC(=O)Cc1ccccc1 | -0.173 |
| COc1cccc(OC)c1C(=O)Nc1cc(C(F)(F)F)ccc1Cl | 3.47 |
| O=C(Cc1ccc(F)cc1)Nc1noc2ccccc12 | -1.11 |
| Cc1onc(-c2c(Cl)cccc2Cl)c1C(=O)Nc1ccc2c(c1)OCO2 | -6.74 |
| CCOc1ccc(NC(=O)CC2(c3ccccc3)C(=O)c3ccccc3C2=O)cc1 | 0.00178 |
| COc1ccccc1C1=NOC(C(=O)NC(C)(C)C)C1 (stereo not drawn) | 3.2 |
| O=C1NN(c2ccc(Cl)c(Cl)c2)C(=O)/C1=C/c1cccs1 | 3.61 |
| Cc1nc2ccc3nc(NC(=O)c4ccc(C#N)cc4)sc3c2s1 | -2.41 |
| COc1cc(-c2nnc3sc(COc4ccccc4)nn23)cc(OC)c1OC | 11.7 |
| Cc1[nH]nc(O)c1C(c1c(O)n[nH]c1C)c1cn(C)c2ccccc12 | 4.05 |
| COc1ccc(N(C)S(=O)(=O)c2ccc(N3C(=O)c4ccccc4C3=O)cc2)cc1 | 3.8 |
| Cc1ccc(NS(=O)(=O)c2ccc(Cl)cc2)cc1C | -3.04 |
| COC(=O)c1ccc(-c2ccco2)n1CC(=O)NC(C)C | -5.69 |
| Cc1cccc(NC(=O)Cn2nc(Cc3cccnc3)c3ccccc3c2=O)n1 | -4.69 |
| CCN(CC)CCCNc1ccc(C2CCCC2)cc1 | -5.79 |
| COc1cccc(-c2nn(C)c3sc(C(=O)NCCC4=CCCCC4)cc23)c1 | 10.5 |
| CCO/C(O)=C1/C(C)=Nc2ncnn2C1c1ccc2c(c1)OCO2 (stereo not drawn) | 3.32 |
| CC1=C(C(=O)Nc2ccccc2)C(c2cn(C)nc2C)NC(=O)N1 (stereo not drawn) | -1.88 |
| COc1ccc(OC)c(NC(=O)CN(c2cccc(Cl)c2C)S(C)(=O)=O)c1 | -2.75 |
